Source: article PMC12820563
The other results are listed elsewhere or left out. The list includes weakly bound sequences.

target: T1, MBP-FoxP3dN (UniProt Q99JB6); experiment: PD-seq (MBP pull-down with sequencing); details: 20 mM Tris-HCl pH 7.5, 100 mM NaCl, 1.5 mM MgCl2, 0.4 uM protein, 0.1 uM dsDNA library, 30 min, room temperature, amylose pull-down; high values mean tight binding; double strand, one strand shown
T1 sequence: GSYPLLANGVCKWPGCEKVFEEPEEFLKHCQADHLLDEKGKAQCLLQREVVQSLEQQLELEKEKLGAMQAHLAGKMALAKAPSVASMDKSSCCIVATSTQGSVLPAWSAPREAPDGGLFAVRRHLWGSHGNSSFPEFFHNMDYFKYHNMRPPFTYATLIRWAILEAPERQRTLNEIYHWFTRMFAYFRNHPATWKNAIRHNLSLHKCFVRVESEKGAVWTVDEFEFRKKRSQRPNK

Row | Sequence | binding signal (RPM ratio (pull-down/input))
1 | GATGATTGTTCTCCCAGCTGATGAATTCAAAATCTCGAGTAAACAAATTTTCCTAATCTTTCTGTTCAAGCGCCATCTAC | 0.23
2 | GATGATTGTTCTCCCAGCTGATGAATTATAGGGTTCGAGTAAACAAATTTTCCTAATCTTTCTGTTCAAGCGCCATCTAC | 0.431
3 | GATGATTGTTCTCCCAGCTGATGAATTTTCGCCCTCGAGTAAACAAATTTTCCTAATCTTTCTGTTCAAGCGCCATCTAC | 0.493
4 | GATGATTGTTCTCCCAGCTGATGAATTATGGGTTTCGAGTAAACAAATTTTCCTAATCTTTCTGTTCAAGCGCCATCTAC | 0.848
5 | GATGATTGTTCTCCCAGCTGATGAATTTGATCAGTCGAGTAAACAAATTTTCCTAATCTTTCTGTTCAAGCGCCATCTAC | 0.298
6 | GATGATTGTTCTCCCAGCTGATGAATTACTTATATCGAGTAAACAAATTTTCCTAATCTTTCTGTTCAAGCGCCATCTAC | 0.411
7 | GATGATTGTTCTCCCAGCTGATGAATTCTCCACATCGAGTAAACAAATTTTCCTAATCTTTCTGTTCAAGCGCCATCTAC | 0.237
8 | GATGATTGTTCTCCCAGCTGATGAATTTGTAGGCTCGAGTAAACAAATTTTCCTAATCTTTCTGTTCAAGCGCCATCTAC | 3.58
9 | GATGATTGTTCTCCCAGCTGATGAATTCTTGAGCTCGAGTAAACAAATTTTCCTAATCTTTCTGTTCAAGCGCCATCTAC | 0.195
10 | GATGATTGTTCTCCCAGCTGATGAATTACCCCGGTCGAGTAAACAAATTTTCCTAATCTTTCTGTTCAAGCGCCATCTAC | 0.202
11 | GATGATTGTTCTCCCAGCTGATGAATTTAGGGGCTCGAGTAAACAAATTTTCCTAATCTTTCTGTTCAAGCGCCATCTAC | 0.48
12 | GATGATTGTTCTCCCAGCTGATGAATTGGCAGCTTCGAGTAAACAAATTTTCCTAATCTTTCTGTTCAAGCGCCATCTAC | 0.472
13 | GATGATTGTTCTCCCAGCTGATGAATTCCAAGAGTCGAGTAAACAAATTTTCCTAATCTTTCTGTTCAAGCGCCATCTAC | 0.219
14 | GATGATTGTTCTCCCAGCTGATGAATTGCTCTATTCGAGTAAACAAATTTTCCTAATCTTTCTGTTCAAGCGCCATCTAC | 0.572
15 | GATGATTGTTCTCCCAGCTGATGAATTTAGGTGTTCGAGTAAACAAATTTTCCTAATCTTTCTGTTCAAGCGCCATCTAC | 1.17
16 | GATGATTGTTCTCCCAGCTGATGAATTTCATCTATCGAGTAAACAAATTTTCCTAATCTTTCTGTTCAAGCGCCATCTAC | 0.653
17 | GATGATTGTTCTCCCAGCTGATGAATTCTCCTGGTCGAGTAAACAAATTTTCCTAATCTTTCTGTTCAAGCGCCATCTAC | 0.156
18 | GATGATTGTTCTCCCAGCTGATGAATTGCACGCGTCGAGTAAACAAATTTTCCTAATCTTTCTGTTCAAGCGCCATCTAC | 1.28
19 | GATGATTGTTCTCCCAGCTGATGAATTTACACAGTCGAGTAAACAAATTTTCCTAATCTTTCTGTTCAAGCGCCATCTAC | 0.436
20 | GATGATTGTTCTCCCAGCTGATGAATTTTTTGCCTCGAGTAAACAAATTTTCCTAATCTTTCTGTTCAAGCGCCATCTAC | 0.432
21 | GATGATTGTTCTCCCAGCTGATGAATTTCCTACATCGAGTAAACAAATTTTCCTAATCTTTCTGTTCAAGCGCCATCTAC | 0.259

Row | Sequence | binding signal (RPM ratio (pull-down/input))
22 | GATGATTGTTCTCCCAGCTGATGAATTAGTGGCATCGAGTAAACAAATTTTCCTAATCTTTCTGTTCAAGCGCCATCTAC | 1.8
23 | GATGATTGTTCTCCCAGCTGATGAATTCACCCGTTCGAGTAAACAAATTTTCCTAATCTTTCTGTTCAAGCGCCATCTAC | 0.276
24 | GATGATTGTTCTCCCAGCTGATGAATTGCATGGTTCGAGTAAACAAATTTTCCTAATCTTTCTGTTCAAGCGCCATCTAC | 1.89
25 | GATGATTGTTCTCCCAGCTGATGAATTAGCGAAATCGAGTAAACAAATTTTCCTAATCTTTCTGTTCAAGCGCCATCTAC | 0.42
26 | GATGATTGTTCTCCCAGCTGATGAATTTTGCTGTTCGAGTAAACAAATTTTCCTAATCTTTCTGTTCAAGCGCCATCTAC | 5.2
27 | GATGATTGTTCTCCCAGCTGATGAATTGCAGGTTTCGAGTAAACAAATTTTCCTAATCTTTCTGTTCAAGCGCCATCTAC | 0.872
28 | GATGATTGTTCTCCCAGCTGATGAATTAACTCTCTCGAGTAAACAAATTTTCCTAATCTTTCTGTTCAAGCGCCATCTAC | 0.285
29 | GATGATTGTTCTCCCAGCTGATGAATTGATGTCGTCGAGTAAACAAATTTTCCTAATCTTTCTGTTCAAGCGCCATCTAC | 0.945
30 | GATGATTGTTCTCCCAGCTGATGAATTTTGGTTTTCGAGTAAACAAATTTTCCTAATCTTTCTGTTCAAGCGCCATCTAC | 1.13
31 | GATGATTGTTCTCCCAGCTGATGAATTGGAACCGTCGAGTAAACAAATTTTCCTAATCTTTCTGTTCAAGCGCCATCTAC | 0.224
32 | GATGATTGTTCTCCCAGCTGATGAATTACGTTAGTCGAGTAAACAAATTTTCCTAATCTTTCTGTTCAAGCGCCATCTAC | 1.14
33 | GATGATTGTTCTCCCAGCTGATGAATTCGCTTAATCGAGTAAACAAATTTTCCTAATCTTTCTGTTCAAGCGCCATCTAC | 0.35
34 | GATGATTGTTCTCCCAGCTGATGAATTTGGGGGATCGAGTAAACAAATTTTCCTAATCTTTCTGTTCAAGCGCCATCTAC | 0.424
35 | GATGATTGTTCTCCCAGCTGATGAATTCTTCTTGTCGAGTAAACAAATTTTCCTAATCTTTCTGTTCAAGCGCCATCTAC | 0.303
36 | GATGATTGTTCTCCCAGCTGATGAATTTAGTCTATCGAGTAAACAAATTTTCCTAATCTTTCTGTTCAAGCGCCATCTAC | 1.1
37 | GATGATTGTTCTCCCAGCTGATGAATTCTTACCCTCGAGTAAACAAATTTTCCTAATCTTTCTGTTCAAGCGCCATCTAC | 0.224
38 | GATGATTGTTCTCCCAGCTGATGAATTGAAATTATCGAGTAAACAAATTTTCCTAATCTTTCTGTTCAAGCGCCATCTAC | 0.534
39 | GATGATTGTTCTCCCAGCTGATGAATTTAATTGTTCGAGTAAACAAATTTTCCTAATCTTTCTGTTCAAGCGCCATCTAC | 4.55
40 | GATGATTGTTCTCCCAGCTGATGAATTGGAGGAGTCGAGTAAACAAATTTTCCTAATCTTTCTGTTCAAGCGCCATCTAC | 0.208
41 | GATGATTGTTCTCCCAGCTGATGAATTATTTGCGTCGAGTAAACAAATTTTCCTAATCTTTCTGTTCAAGCGCCATCTAC | 2.03
42 | GATGATTGTTCTCCCAGCTGATGAATTCGAAGCCTCGAGTAAACAAATTTTCCTAATCTTTCTGTTCAAGCGCCATCTAC | 0.363

Row | Sequence | binding signal (RPM ratio (pull-down/input))
43 | GATGATTGTTCTCCCAGCTGATGAATTATACCTCTCGAGTAAACAAATTTTCCTAATCTTTCTGTTCAAGCGCCATCTAC | 0.525
44 | GATGATTGTTCTCCCAGCTGATGAATTTGCTCACTCGAGTAAACAAATTTTCCTAATCTTTCTGTTCAAGCGCCATCTAC | 0.507
45 | GATGATTGTTCTCCCAGCTGATGAATTCAAACTTTCGAGTAAACAAATTTTCCTAATCTTTCTGTTCAAGCGCCATCTAC | 0.408
46 | GATGATTGTTCTCCCAGCTGATGAATTGGTATCATCGAGTAAACAAATTTTCCTAATCTTTCTGTTCAAGCGCCATCTAC | 1.44
47 | GATGATTGTTCTCCCAGCTGATGAATTATGCATTTCGAGTAAACAAATTTTCCTAATCTTTCTGTTCAAGCGCCATCTAC | 7.25
48 | GATGATTGTTCTCCCAGCTGATGAATTCAACGAATCGAGTAAACAAATTTTCCTAATCTTTCTGTTCAAGCGCCATCTAC | 0.244
49 | GATGATTGTTCTCCCAGCTGATGAATTCGCACTATCGAGTAAACAAATTTTCCTAATCTTTCTGTTCAAGCGCCATCTAC | 0.526
50 | GATGATTGTTCTCCCAGCTGATGAATTATTCTTATCGAGTAAACAAATTTTCCTAATCTTTCTGTTCAAGCGCCATCTAC | 0.33
51 | GATGATTGTTCTCCCAGCTGATGAATTCCGGCCCTCGAGTAAACAAATTTTCCTAATCTTTCTGTTCAAGCGCCATCTAC | 0.341
52 | GATGATTGTTCTCCCAGCTGATGAATTACTCAGGTCGAGTAAACAAATTTTCCTAATCTTTCTGTTCAAGCGCCATCTAC | 0.22
53 | GATGATTGTTCTCCCAGCTGATGAATTTTAATCCTCGAGTAAACAAATTTTCCTAATCTTTCTGTTCAAGCGCCATCTAC | 0.333
54 | GATGATTGTTCTCCCAGCTGATGAATTAGTTATGTCGAGTAAACAAATTTTCCTAATCTTTCTGTTCAAGCGCCATCTAC | 3.79
55 | GATGATTGTTCTCCCAGCTGATGAATTCGAGAATTCGAGTAAACAAATTTTCCTAATCTTTCTGTTCAAGCGCCATCTAC | 0.642
56 | GATGATTGTTCTCCCAGCTGATGAATTTTAACTATCGAGTAAACAAATTTTCCTAATCTTTCTGTTCAAGCGCCATCTAC | 0.485
57 | GATGATTGTTCTCCCAGCTGATGAATTTCATAGGTCGAGTAAACAAATTTTCCTAATCTTTCTGTTCAAGCGCCATCTAC | 0.343
58 | GATGATTGTTCTCCCAGCTGATGAATTCTCAGGGTCGAGTAAACAAATTTTCCTAATCTTTCTGTTCAAGCGCCATCTAC | 0.155
59 | GATGATTGTTCTCCCAGCTGATGAATTGGGTAAGTCGAGTAAACAAATTTTCCTAATCTTTCTGTTCAAGCGCCATCTAC | 0.303
60 | GATGATTGTTCTCCCAGCTGATGAATTCACCAAGTCGAGTAAACAAATTTTCCTAATCTTTCTGTTCAAGCGCCATCTAC | 0.173
61 | GATGATTGTTCTCCCAGCTGATGAATTTACTGCTTCGAGTAAACAAATTTTCCTAATCTTTCTGTTCAAGCGCCATCTAC | 0.692
62 | GATGATTGTTCTCCCAGCTGATGAATTAATCATTTCGAGTAAACAAATTTTCCTAATCTTTCTGTTCAAGCGCCATCTAC | 0.933
63 | GATGATTGTTCTCCCAGCTGATGAATTGACTCAATCGAGTAAACAAATTTTCCTAATCTTTCTGTTCAAGCGCCATCTAC | 0.336
